From PubChem BioAssay AID588342 (National Center for Advancing Translational Sciences (NCATS), 2011)
Out of some 360,000 compounds screened, about 25,000 (6.9%) were called active. The shares of active, inactive and inconclusive entries below differ from those in the screen. Calls come from the whole dose curve; as a rule, active = well fitted inhibition curve with a large enough effect; inconclusive = small, poorly fitted or top-dose-only effect; inactive = flat fitted curve, though single readings scatter. A potency beside an inconclusive call is a rough fit, not a confirmed value.
Note: nearly all actives have a fitted effect of over 55% in size.
Potency is the fitted concentration of half-maximal effect; tags give direction and shape of the fitted curve.
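Throughout, for activity change, negative = inhibition: plate controls were vehicle for no effect and reference inhibitor for full effect.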

Each compound was assayed against Luciferin 4-monooxygenase (Photinus pyralis) (UniProt P08659) (assay: qHTS profiling assay for firefly luciferase inhibitor/activator using purifed enzyme and Km concentrations of substrates (counterscreen for miR-21 project)). Settings: purified FLuc, luminescence inhibition; series mostly up to 57.5 µM; activity change, negative = inhibition: at the top concentration.
Chain of UniProt P08659 (P08659 whole entry, looked up): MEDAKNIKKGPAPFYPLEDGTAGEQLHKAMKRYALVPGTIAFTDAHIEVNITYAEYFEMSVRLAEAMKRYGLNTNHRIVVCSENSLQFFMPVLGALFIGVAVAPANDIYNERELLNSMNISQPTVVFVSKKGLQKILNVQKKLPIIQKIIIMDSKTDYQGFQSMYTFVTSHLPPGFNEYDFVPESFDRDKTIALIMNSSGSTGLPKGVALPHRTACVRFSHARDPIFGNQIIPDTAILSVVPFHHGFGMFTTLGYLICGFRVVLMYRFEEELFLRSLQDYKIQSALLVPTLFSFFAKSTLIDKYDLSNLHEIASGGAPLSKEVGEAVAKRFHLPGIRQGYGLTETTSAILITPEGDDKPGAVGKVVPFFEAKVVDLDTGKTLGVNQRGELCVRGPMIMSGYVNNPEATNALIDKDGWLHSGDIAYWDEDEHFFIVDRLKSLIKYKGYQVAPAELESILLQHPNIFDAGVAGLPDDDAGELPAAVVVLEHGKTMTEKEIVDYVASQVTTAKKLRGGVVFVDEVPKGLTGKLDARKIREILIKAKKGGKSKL
Outline: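 Purified P. pyralis luciferase, 10 nM final, with Km-level 10 uM D-luciferin and 10 uM ATP in 50 mM Tris acetate pH 7.5, 10 mM Mg acetate, 0.01% Tween-20, 0.05% BSA; 6-point qHTS titration about 60 µM downward; luminescence read.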
For `COc1ccc(OCCn2cc(/C=N/NC(=O)c3ccncc3)c3ccccc32)cc1`, the Potency was inconclusive: 23.9 µM [inhibitor, single point]. For `Cc1ccc(NC(=O)CSc2nsc(SCC(=O)Nc3ccc(C)cc3C)c2C#N)c(C)c1`, the “activity change, negative = inhibition” value was inactive: 3.6%. For `O=C(c1ccc2c(=O)n(Cc3ccc(Cl)cc3)c(=S)[nH]c2c1)N1CCOCC1`, the Potency was inconclusive: 37.9 µM [inhibitor, single point]. With `Cc1ccc(-c2cc(-c3ccccc3)nc(NN)n2)cc1` the Potency was inconclusive: 19 µM [inhibitor, partial curve]. With `CC(=O)c1ccc(NC(=O)c2ccn[nH]2)cc1` the Potency was active: 9.53 µM. For `O=C(O)c1cc2cc(OCc3ccccc3)ccc2[nH]1`, the Potency was active: 19 µM. For `CSc1nc(N)n2nc(-c3ccc(Cl)cc3)cc2n1`, the Potency was active: 0.675 µM. In the case of `O=C(NNc1nc(-c2ccccc2)cs1)c1cccs1`, the Potency is reported as inconclusive: 23.9 µM [inhibitor, single point]. In the case of `COc1ccc(C2=NN3C(C2)c2ccccc2OC3c2cccs2)cc1` (stereo unspecified), the Potency is reported as inconclusive: 26.9 µM [inhibitor, single point]. With `Cc1ccccc1OCC(=O)Nc1nc(-c2ccncc2)cs1` the Potency was inconclusive: 8.91 µM [inhibitor, partial curve, poor fit]. For `O=C(N/N=C/c1cc(Br)cc(Br)c1O)c1ccncc1`, the “activity change, negative = inhibition” value was inactive: -17.8%. `Cc1ccc(NC(=O)CCNC(=O)c2ccc(Br)cc2)cc1S(=O)(=O)N1CCOCC1` was tested, and the “activity change, negative = inhibition” value was inactive: -2.87%. In the case of `Cc1ccc(NC(=O)c2ccc(COc3ccccc3[N+](=O)[O-])o2)nc1`, the Potency is reported as inconclusive: 15.1 µM [inhibitor, partial curve]. With `Nc1c(-c2cccs2)cnc2c(-c3ccc(F)cc3)cnn12` the Potency was active: 0.478 µM. For `Cc1ccc(-c2cc(C(=O)N/N=C/c3ccc([N+](=O)[O-])o3)c3ccccc3n2)o1`, the Potency was active: 0.301 µM. For `COc1cc(C)ccc1OCCCCOc1ccccc1C(C)=O`, the Potency was inconclusive: 21.3 µM [inhibitor, partial curve, poor fit]. `COc1ccc(-c2nnc(SCC(=O)/C(C#N)=C(\C)N)o2)cc1` was tested, and the Potency was active: 0.953 µM. In the case of `COc1ccc(/C(N)=N/OC(=O)CSc2ccc(C)cc2)cc1`, the Potency is reported as inconclusive: 37.9 µM [inhibitor, single point]. `Cc1cccc(NC(=O)C(=O)NCCCc2ccccc2)c1` was tested, and the Potency was inconclusive: 21.3 µM [inhibitor, partial curve]. `C=CCC(c1ccccc1F)N(CCN1CCOCC1)C(=O)Nc1cccc(Cl)c1` (stereo unspecified) was tested, and the “activity change, negative = inhibition” value was inactive: 1.09%. In the case of `O=[N+]([O-])/C=C/c1ccc2c(ccn2Cc2ccccc2)c1`, the Potency is reported as active: 13.5 µM. `O=C(COC(=O)c1cccnc1Cl)c1ccc(Cl)cc1Cl` was tested, and the Potency was active: 0.757 µM. For `COc1cc(NC(=O)COC(=O)c2ccc3ccccc3n2)cc(OC)c1`, the “activity change, negative = inhibition” value was inactive: -2.57%. With `Cc1cccc(NC(=O)CCCC(=O)OC(C)C(=O)c2ccccc2)c1` (stereo unspecified) the “activity change, negative = inhibition” value was inactive: -2.92%. For `CC(C)c1ccc(C(=O)NN2C(=O)C3CCCCC3C2=O)cc1` (stereo unspecified), the Potency was active: 2.13 µM. In the case of `COc1ccc(NC(=O)N(Cc2cccs2)Cc2cc3cc4c(cc3[nH]c2=O)OCO4)cc1`, the Potency is reported as inconclusive: 13.5 µM [inhibitor, partial curve]. For `O=c1c2oc3ccccc3c2ncn1Cc1ccc(F)cc1`, the “activity change, negative = inhibition” value was inactive: -3.15%. In the case of `Cn1cccc1/C=N/NC(=O)c1sc2ccccc2c1Cl`, the Potency is reported as active: 2.69 µM. In the case of `CC(C)(C)c1ccc(C(=O)Nc2cccc3ncccc23)cc1`, the Potency is reported as active: 13.5 µM. For `Cc1c(-c2nc(N)nc(Nc3ccc(F)cc3)n2)oc2ccccc12`, the Potency was inconclusive: 6.01 µM [inhibitor, full curve]. With `Cn1c(=O)n(CCOc2ccc([N+](=O)[O-])cc2)c2ccccc21` the Potency was inconclusive: 21.3 µM [inhibitor, partial curve, poor fit]. In the case of `CCCNc1ccc(-c2nc(-c3ccco3)no2)cc1[N+](=O)[O-]`, the Potency is reported as inconclusive: 19 µM [inhibitor, partial curve]. `Cc1cc(S(=O)(=O)n2ccnc2C(C)C)cc([N+](=O)[O-])c1C` was tested, and the Potency was inconclusive: 15.1 µM [inhibitor, partial curve, poor fit]. In the case of `CCOc1ccc(C(=O)COC(=O)c2nc3nccc(C)n3n2)cc1`, the “activity change, negative = inhibition” value is reported as inactive: -17.8%. In the case of `CCC1(COC(=O)Nc2cccc(Cl)c2)COC1`, the Potency is reported as inconclusive: 37.9 µM [inhibitor, single point]. For `N/C(=N\OC(=O)c1cccnc1)c1ccccc1Cl`, the Potency was active: 16.9 µM. For `Cc1cccnc1NC(=S)NC(=O)c1cccs1`, the Potency was active: 13.5 µM. With `O=C(NCc1ccccn1)Nc1ccc2c(c1)OCO2` the Potency was inconclusive: 16.9 µM [inhibitor, partial curve, poor fit]. For `CCOC(=O)c1[nH]c2ccccc2c1NC(=O)c1ccccc1OC`, the “activity change, negative = inhibition” value was inactive: -9.3%. With `Cc1sc2c3ccsc3ccc2[n+]1C` the Potency was inconclusive: 15.1 µM [inhibitor, partial curve, poor fit]. In the case of `CCOC(=O)Cc1cc(-c2ccc(OC)cc2)nc2ccc3ccccc3c12`, the Potency is reported as inconclusive: 12 µM [inhibitor, partial curve]. `Cc1ccc(C2=NN(S(C)(=O)=O)C(c3cccs3)C2)cc1` (stereo unspecified) was tested, and the Potency was active: 19 µM. `CNS(=O)(=O)c1cn(CC(=O)Nc2cccc(C(F)(F)F)c2)cc1S(=O)(=O)NC` was tested, and the “activity change, negative = inhibition” value was inactive: -0.28%. `CCSc1ccccc1C(=O)Nc1ccc2c(c1)OCO2` was tested, and the Potency was inconclusive: 23.9 µM [inhibitor, single point]. For `O=C1/C(=C\c2ccsc2)NC(=S)N1c1ccccc1`, the Potency was inconclusive: 15.1 µM [inhibitor, partial curve]. With `C/C(=N/NC(=O)c1cc(-c2ccc(Cl)s2)[nH]n1)c1ccco1` the Potency was inconclusive: 23.9 µM [inhibitor, single point]. `O=C(Nc1ccncc1)c1cc(-c2cccc(Br)c2)nc2ccccc12` was tested, and the “activity change, negative = inhibition” value was inactive: -26.9%. In the case of `Cc1cc(C(=O)COC(=O)Cc2ccc(Br)cc2)c(C)n1C`, the Potency is reported as inconclusive: 26.9 µM [inhibitor, partial curve, poor fit]. `NC(=NCc1ccco1)NC(=O)c1ccccc1` was tested, and the Potency was inconclusive: 30.1 µM [inhibitor, partial curve, poor fit]. `CCOC(=O)c1oc2cc(O)ccc2c(=O)c1-c1ccccc1OC` was tested, and the Potency was inconclusive: 16.9 µM [inhibitor, partial curve]. With `Cc1cccc(-c2nnc(SCCC(=O)N3CCOCC3)o2)c1` the Potency was inconclusive: 10.7 µM [inhibitor, partial curve, poor fit]. With `COc1cccc(CNC(=O)COC(=O)c2nc(Cl)c(Cl)c(Cl)c2Cl)c1` the “activity change, negative = inhibition” value was inactive: 1.14%. With `COc1cc(OC)cc(-c2nc3ccccc3c(=O)n2OC(=O)c2ccccc2C)c1` the Potency was inconclusive: 37.9 µM [inhibitor, partial curve, poor fit]. For `O=S(=O)(Nc1cccc(-c2ccc(N3CCOCC3)nn2)c1)c1cc(C(F)(F)F)ccc1Cl`, the Potency was active: 5.36 µM. `CC(Cc1cccs1)NC(=O)Nc1ccc(F)cc1` (stereo unspecified) was tested, and the Potency was inconclusive: 23.9 µM [inhibitor, single point]. In the case of `O=C(/C=C/c1ccccc1)Nc1cccc(C(=O)O)c1`, the Potency is reported as active: 0.0675 µM. In the case of `C=CCOc1ccc(CNc2nccs2)cc1OC`, the Potency is reported as inconclusive: 16.9 µM [inhibitor, partial curve, poor fit]. With `O=C(O)c1ccc(/C=N/NC(=O)c2ccc(F)cc2)cc1` the Potency was active: 19 µM. `Cc1ccc(-c2ccc(C(=O)O)o2)cc1Cl` was tested, and the Potency was inconclusive: 23.9 µM [inhibitor, single point]. For `COc1ccc2c(c1)c(=O)c(C(=O)c1ccc(C)cc1)cn2Cc1ccccc1F`, the “activity change, negative = inhibition” value was inactive: -10.1%. With `Cc1cc(C)cc(NC(=O)C(=O)NCC(c2cccnc2)N2CCc3ccccc32)c1` (stereo unspecified) the “activity change, negative = inhibition” value was inactive: 2.03%. In the case of `CCn1c(SCC(=O)NC(=O)Nc2ccc3c(c2)OCCO3)nnc1-c1cccs1`, the Potency is reported as active: 19 µM. For `Cc1cccc(C(=O)NNC(=O)c2ccccc2Br)c1`, the Potency was inconclusive: 37.9 µM [inhibitor, partial curve, poor fit]. With `Cc1cccc(-c2nc(Nc3ccc(N4CCOCC4)cc3)c3ccccc3n2)c1` the Potency was inconclusive: 13.5 µM [inhibitor, partial curve]. For `Cc1cc(C)n(-c2ncc(-c3ccccc3)nn2)n1`, the Potency was inconclusive: 21.3 µM [inhibitor, partial curve, poor fit]. `CCCN(CCC)C(=O)c1c[nH]c2ccc(S(=O)(=O)Nc3cc(C)cc(C)c3)cc2c1=O` was tested, and the Potency was inconclusive: 6.75 µM [inhibitor, partial curve]. With `CCc1nc(Nc2ccc(O)cc2)c2oc3ccccc3c2n1` the Potency was active: 19 µM. `O=C(NCCOc1cccnc1)c1ccc(OC2CCN(Cc3ccccn3)CC2)cc1` was tested, and the “activity change, negative = inhibition” value was inactive: -1.59%. `C/C(Cc1ccccc1)=N\NC(=O)CNC(=O)c1ccccc1Br` was tested, and the Potency was inconclusive: 33.8 µM [inhibitor, single point]. In the case of `Cc1cccn2c(Nc3ccc4c(c3)OCCO4)c(-c3ccc(Br)o3)nc12`, the Potency is reported as inconclusive: 12 µM [inhibitor, partial curve]. With `Cc1c(NC(=O)c2cccs2)cccc1C(=O)O` the Potency was active: 15.1 µM. With `COc1ccccc1NC(=O)c1oc2ccccc2c1NC(=O)c1ccc(S(=O)(=O)N(C)C)cc1` the “activity change, negative = inhibition” value was inactive: -2.42%. `O=C(Cc1c(F)cccc1Cl)OCN1C(=O)c2ccccc2C1=O` was tested, and the Potency was inconclusive: 37.9 µM [inhibitor, partial curve, poor fit]. `COCCn1c(C)cc(C(=O)CSc2nc(C)c(C)c(C)n2)c1C` was tested, and the “activity change, negative = inhibition” value was inactive: -18.6%. With `CCOC(=O)c1cc(S(=O)(=O)Nc2ccc(OC(F)(F)F)cc2)[nH]n1` the Potency was inconclusive: 12 µM [inhibitor, partial curve]. `OCCCNc1ncnc2oc(-c3ccccc3)c(-c3ccccc3)c12` was tested, and the “activity change, negative = inhibition” value was inactive: -1.94%.
